Measured values from PubChem BioAssay AID623901 (Broad Institute, 2012).
“And” between values parts separate entries of the source, which are not always exact repeats. Equal values may be shown once. The campaign covered roughly 340,000 compounds. About 470 (0.14%) were called active. The shares of active, inactive and inconclusive entries below differ from those in the screen.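 How the source made its calls: active means mean activation of 30% or more, with every replicate also reaching 30%; inconclusive means mean activation of 30% or more but some replicate falls short; inactive means the rest.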

Assay: small molecules raising miR-122 sensor signal – cell-based, Huh7 psiCHECK-miR122, Renilla luciferase, single point, primary screen (AID 623901);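 further: 0% = median of neutral control wells and 100% = median of positive control wells; higher luciferase signal means stronger suppression of miR-122 activity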
Details: 48 h, at 12.5 µM, active compounds read high

activation, inconclusive:
Cc1noc(C)c1NC(=O)Nc1ccc2c(c1)C(=O)N(C)[C@@H]1CC[C@H](CC(=O)N[C@H]3CCN(Cc4ccccc4)C3)O[C@H]1CO2 35%, O=C1C(Cl)=C(Nc2ccccc2)C(=O)c2ccccc21 31.8%, O=C(c1ccccc1)N1C[C@H]2[C@@H](c3ccccc31)[C@@H](CO)N2C(=O)CN1CCOCC1 33.3%, CN1C(=O)c2cc(NC(=O)c3cccc(F)c3)ccc2OC[C@@H]2O[C@H](CC(=O)NC3CCC3)CC[C@@H]21 40% and 33.3%, CN1C[C@H]2[C@@H](c3ccccc31)[C@@H](CO)N2C(=O)C1CCOCC1 35.7%, COc1ccc(CNC(=O)C[C@H]2CC[C@H]3[C@H](COc4ccc(NC(=O)C(C)C)cc4C(=O)N3C)O2)cc1 35%, O=C(COc1ccccc1F)N1CCc2ccccc2C1 31.9%, CC(C)C(=O)Nc1ccc2c(c1)C(=O)N(C)[C@@H]1CC[C@H](CC(=O)N[C@H](C)c3ccccc3)O[C@@H]1CO2 43.3%, CCN(C[C@H]1[C@@H](c2ccccc2)[C@@H](CO)N1C(=O)COC)S(C)(=O)=O 83.3%, O=C(CSc1nc2ccccc2c(=O)n1-c1ccc(SC(F)F)cc1)Nc1ccc(N2CCOCC2)cc1 30.6%, C[C@@H]1CN([C@H](C)CO)S(=O)(=O)c2ccc(C3=CCCC3)cc2O[C@@H]1CN(C)C(=O)c1ccc(F)cc1 37.3%, Cc1noc(C)c1NC(=O)N(C)C[C@@H]1Oc2cc(C#CCC3CCCC3)ccc2S(=O)(=O)N([C@@H](C)CO)C[C@@H]1C 34.7%, C[C@H](CO)N1C[C@H](C)[C@@H](CN(C)Cc2ccc(-c3ccccc3)cc2)Oc2ncc(C#CCN(C)C)cc2C1=O 30.8%, CN1C(=O)c2cc(NC(=O)Nc3ccccc3Cl)ccc2OC[C@H]2O[C@H](CC(=O)O)CC[C@@H]21 33.3%, CN(Cc1ccccc1)C(=O)COC(=O)c1ccccc1Nc1ccccc1 35.1%, CN(C)C(CNC(=O)c1ccc2[nH]c(=O)c(=O)[nH]c2c1)c1ccco1 (stereo unspecified) 31.4%, Cc1nnsc1Sc1cccc(C(F)(F)F)c1 55.2%, CCCNC(=O)C[C@H]1CC[C@H]2[C@H](COc3ccc(NC(=O)c4ccc(C(F)(F)F)cc4)cc3C(=O)N2C)O1 37.5%, C[C@H](CO)N1C[C@H](C)[C@H](CN(C)S(=O)(=O)c2cccc(F)c2)Oc2ncc(C#CC3CCCCC3)cc2C1=O 33.6%, C/C=C/c1ccc([C@H]2[C@@H](CO)N[C@@H]2CN(CC)C(=O)CN2CCOCC2)cc1 75%, O=C(Nc1cccc([N+](=O)[O-])c1)c1cc2ccccc2cc1O 30.9%, CO[C@@H]1CN(C)C(=O)c2cc(NC(=O)Nc3ccc(Cl)c(Cl)c3)ccc2OC[C@H](C)NC[C@H]1C 32%, CCS(=O)(=O)Nc1ccc2c(c1)C(=O)N(C)[C@@H]1CC[C@@H](CC(=O)NCCCN3CCOCC3)O[C@@H]1CO2 32.5%, O=C(Nc1ccccc1)N1C[C@@H]2[C@H](c3ccccc31)[C@H](CO)N2Cc1cocn1 36.5%, Cc1onc(-c2ccccc2)c1C(=O)NCc1ccccn1 30.8%, OC[C@H]1[C@@H](c2ccccc2)[C@H](CNCC2CCC2)N1CC1CC1 41.7%, O=C(c1ccco1)N1CCN(C2CC(=O)N(c3ccccc3)C2=O)CC1 (stereo unspecified) 49.3%, O=C(c1cccc(F)c1)N1C[C@@H]2[C@H](c3ccccc31)[C@H](CO)N2C(=O)Cc1ccccc1 36.5%, COCCNC(=O)C[C@H]1CC[C@@H]2[C@@H](COc3ccc(NS(=O)(=O)c4ccc(Cl)cc4)cc3C(=O)N2C)O1 35%, CC(C)N(C[C@H]1[C@H](c2ccccc2)[C@@H](CO)N1S(C)(=O)=O)C(=O)CN(C)C 33.3%, CNC[C@H]1Oc2cc(C#CC3CCCC3)ccc2S(=O)(=O)N([C@H](C)CO)C[C@H]1C 31.5%, COc1ccccc1NC(=O)Nc1ccc2c(c1)C(=O)N(C)[C@H]1CC[C@H](CC(=O)Nc3ccc4c(c3)COC4)O[C@@H]1CO2 38.3%, COCC(=O)N(C[C@H]1[C@H](c2ccccc2)[C@@H](CO)N1C(=O)NC(C)C)C(C)C 108%, CC(C)NC(=O)N1C[C@@H]2[C@H](c3ccccc31)[C@@H](CO)N2C(=O)c1cccnc1 33.3%, C[C@@H]1CN([C@@H](C)CO)C(=O)Cc2cc(NS(=O)(=O)c3ccc(F)cc3)ccc2O[C@H]1CN(C)Cc1ccc(Oc2ccccc2)cc1 30.1%

activation, active:
CN1C(=O)c2cc(NC(=O)c3cccc(F)c3)ccc2OC[C@H]2O[C@H](CC(=O)NC3CCC3)CC[C@H]21 70%, O=C1CC(Sc2nnnn2-c2ccccc2)C(=O)N1c1cccc(Cl)c1 (stereo unspecified) 51.9%, COc1ccc(-c2c(-c3ccccc3)c(C(=O)C(=O)NCCCN(C)C)n3ccc4cc(OC)c(OC)cc4c23)cc1OC 37.5%, COc1ccc(NC(=O)COC(=O)CCCc2c[nH]c3ccccc23)cc1 36.2%, CN1C(=O)c2cc(NC(=O)c3ccc(C(F)(F)F)cc3)ccc2OC[C@H]2O[C@H](CC(=O)NCc3ccc4c(c3)OCO4)CC[C@H]21 33.3%, CNC(=O)C[C@H]1CC[C@@H]2[C@H](COc3ccc(NC(=O)c4cccc(OC)c4)cc3C(=O)N2C)O1 83.3%, CN1C[C@@H]2[C@H](c3ccccc31)[C@@H](CO)N2C(=O)Nc1ccccc1 41.7%, CCCc1ccc(S(=O)(=O)NCCc2ccncc2)cc1 36.1%, OC(c1cc(C(F)(F)F)nc2c(Cl)cc(Cl)cc12)C1CCCCN1 (stereo unspecified) 40.8%, CCCC(=O)OCCNc1cc(Sc2nccn2C)c2nonc2c1[N+](=O)[O-] 61.6%, CCN(CC)CCNC(=O)c1ccc(NC(=O)c2cn(-c3ccc(F)cc3)nc2-c2cccc(OC)c2)cc1 67.9%, COc1cccc(CNC(=O)C[C@@H]2CC[C@H]3[C@H](COc4ccc(NS(=O)(=O)c5ccccc5F)cc4C(=O)N3C)O2)c1 36.7%, Cc1nn(C)cc1NC(=O)C[C@@H]1CC[C@@H]2[C@@H](COc3ccc(NC(=O)Nc4cccc(Cl)c4)cc3C(=O)N2C)O1 47.8%, CCNC(=O)C[C@@H]1CC[C@@H]2[C@@H](COc3ccc(NC(=O)C4CCCCC4)cc3C(=O)N2C)O1 33.3%, COc1ccc(-c2ccc3c(c2)O[C@H](CN(C)C(=O)Nc2ccccc2F)[C@H](C)CN([C@@H](C)CO)S3(=O)=O)cc1 31.8%

activation, inactive:
COCC#Cc1cnc2c(c1)C(=O)N([C@@H](C)CO)C[C@@H](C)[C@@H](CN(C)C(=O)Nc1ccc(OC)cc1)O2 -2.9%, C[C@H]1CN([C@@H](C)CO)C(=O)c2cc(C#CC3(O)CCCC3)cnc2O[C@@H]1CN(C)C(=O)CN(C)C 4.21%, CCC(=O)N(C)C[C@H]1Oc2ncc(-c3cccc(OC)c3)cc2C(=O)N([C@H](C)CO)C[C@H]1C 1.82%, CC(C)CC#Cc1ccc2c(c1)O[C@H](CN(C)C(=O)c1ccccc1)[C@@H](C)CN([C@@H](C)CO)S2(=O)=O -40%, C[C@H](CO)N1C[C@H](C)[C@H](CN(C)S(=O)(=O)c2cccs2)Oc2ncc(Br)cc2C1=O -3.02%, C[C@@H]1CN([C@@H](C)CO)C(=O)c2cc(-c3ccccc3F)cnc2O[C@H]1CN(C)C(=O)C1CCCCC1 5.93%, CCC(=O)Nc1ccc2c(c1)OC[C@@H](C)N(C(=O)CN1CCOCC1)C[C@H](C)[C@H](OC)CN(C)C2=O -2.59%, C[C@@H]1CN([C@H](C)CO)C(=O)c2cc(-c3ccncc3)cnc2O[C@@H]1CN(C)C(=O)Cc1cccnc1 -6.69%, C[C@@H]1CN([C@@H](C)CO)C(=O)c2cc(C#CC3CC3)cnc2O[C@@H]1CN(C)Cc1ccncc1 0.837%, C[C@H](CO)N1C[C@H](C)[C@H](CN(C)Cc2cccc(F)c2)Oc2ncc(Br)cc2C1=O -22.8%, C/C=C/c1cnc2c(c1)C(=O)N([C@H](C)CO)C[C@H](C)[C@H](CN(C)C(=O)c1cccnc1)O2 -56%, COCC(=O)N(C)C[C@@H]1Oc2cc(Br)ccc2S(=O)(=O)N([C@@H](C)CO)C[C@@H]1C -24.8%, CC(C)CC#Cc1ccc2c(c1)O[C@@H](CN(C)C(=O)NC1CCCC1)[C@@H](C)CN([C@@H](C)CO)S2(=O)=O -13.6%, C[C@@H]1CN([C@H](C)CO)C(=O)c2cc(C#CCC3CCCC3)cnc2O[C@H]1CN(C)CC1CCOCC1 -1.4%, COc1ccccc1-c1ccc2c(c1)O[C@H](CN(C)C(=O)Nc1ccccc1)[C@@H](C)CN([C@@H](C)CO)S2(=O)=O -32.1%, C[C@H](CO)N1C[C@H](C)[C@@H](CN(C)C(=O)C2CCCCC2)Oc2ncc(-c3ccccc3F)cc2C1=O 1.43%
